From PubChem BioAssay (Tox21)
Values joined by “and” are separate entries in the source; they are usually repeats but may differ in a detail not shown here. Equal values may be shown once. The shares of active, inactive and inconclusive entries below differ from those in the screen. Potencies beside an inconclusive call are fits to weak or partial responses and may not hold up. Active and inactive are the calls of the source. Unless noted, calls follow the shape of the dose curve; as a rule, active = well fitted curve in the direction sought with a large enough effect in the repeat runs; inconclusive = weak or mixed curves; inactive = no such curve, though single readings can be large; an effect the other way counts as inactive or inconclusive.

Columns and labels:
[1] = qHTS assay to identify aromatase inhibitors - cell viability counter screen (AID 743084); settings: MCF-7 aro ERE viability, CellTiter-Fluor, 24 h; activity change, negative = cytotoxicity: at 70.3 µM (top of the series);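 also: cells stimulated with testosterone during compound exposure; nearly all actives have a fitted effect of over 55% in size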
[2] = molecular target: Peroxisome proliferator-activated receptor gamma (Homo sapiens) (UniProt P37231); assay: qHTS assay to identify small molecule agonists of the peroxisome proliferator-activated receptor gamma (PPARg) signaling pathway (AID 743094; active = well fitted activation curve with a large enough effect in the signal ratio in the repeat runs, not every such curve was filed as active; inconclusive = weak or mixed curves, or effect the other way; inactive = no such curve, though single readings can be large or run the other way; the % refers to the signal ratio); settings: HEK293H PPARg-UAS-bla, beta-lactamase FRET ratio, 17 h; activation: at 57 µM (top of the series) unless noted
Procedure, shortened: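 Stably transfected HEK293H cells (GeneBLAzer PPARg UAS-bla) were incubated with test substances for 17 h at 37C after a 5 h pre-incubation; beta-lactamase activity was then detected by FRET substrate fluorescence.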

[3] = molecular target: Peroxisome proliferator-activated receptor gamma (Homo sapiens) (UniProt P37231); assay: qHTS assay to identify small molecule antagonists of the peroxisome proliferator-activated receptor gamma (PPARg) signaling pathway (AID 743191; calls by dose curve; also: nearly all actives have a fitted effect of over 30% in size); settings: HEK293H PPARg-UAS-bla, beta-lactamase ratio, antagonist, 17 h
Procedure, shortened: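 Beta-lactamase reporter under UAS control in HEK293H PPARg-bla cells; compound treatment 17 h at 37C. Read-out: fluorescence intensity after 1 h room-temperature incubation with LiveBLAzer B/G FRET substrate.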

[4] = molecular target: Aryl hydrocarbon receptor (Homo sapiens) (UniProt P35869); assay: qHTS assay to identify small molecule that activate the aryl hydrocarbon receptor (AhR) signaling pathway (AID 743085); also: nearly all actives have a fitted effect of over 15% in size;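 as to activation: HG2L7.5c1 human HepG2 liver cells with stably integrated DRE-driven firefly reporter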
Procedure, shortened: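 Cell line HG2L7.5c1 (human hepatoma, 20× DRE-luc). Plated, 5 h 37C, compound/DMSO added, 24 h 37C. CellTiter-Fluor 30 min 37C → fluorescence; then ONE-Glo 30 min RT → luminescence.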

[5] = qHTS assay to identify small molecule antagonists of the peroxisome proliferator-activated receptor gamma (PPARg) signaling pathway - cell viability counter screen (AID 743194); settings: PPARg-bla HEK293H viability, CellTiter-Glo luminescence, 17 h, co-treated with 50 nM rosiglitazone; activity change, negative = cytotoxicity: at 62.6 µM (top of the series) unless noted; also: nearly all actives have a fitted effect of over 55% in size
Procedure, shortened: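 Viability was measured as CellTiter-Glo luminescence in GeneBLAzer PPARg UAS-bla HEK293H cells. These cells had been exposed 17 h at 37 C to compounds together with rosiglitazone at 50 nM final, with the beta-lactamase readout taken in the same wells.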

[6] = qHTS assay to identify small molecule that activate the aryl hydrocarbon receptor (AhR) signaling pathway - cell viability counter screen (AID 743086); also: nearly all actives have a fitted effect of over 45% in size
Procedure, shortened: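 Cytotoxicity counter screen: CellTiter-Fluor signal (30 min, 37 C) in 4000 HepG2 cells/well carrying the DRE-luciferase reporter, following 24 h compound exposure at 37 C.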

[7] = ratio activity, negative = inhibition: at 62.6 µM (top of the series) unless noted
% is scaled to controls: 0 for no effect and ±100 for the full control effect; potency is read from the fitted curve at half-maximal effect; tags tell the direction and shape of the fitted curve or compound fluorescence and quenching.

Chain of UniProt P37231 (P37231 whole entry, looked up): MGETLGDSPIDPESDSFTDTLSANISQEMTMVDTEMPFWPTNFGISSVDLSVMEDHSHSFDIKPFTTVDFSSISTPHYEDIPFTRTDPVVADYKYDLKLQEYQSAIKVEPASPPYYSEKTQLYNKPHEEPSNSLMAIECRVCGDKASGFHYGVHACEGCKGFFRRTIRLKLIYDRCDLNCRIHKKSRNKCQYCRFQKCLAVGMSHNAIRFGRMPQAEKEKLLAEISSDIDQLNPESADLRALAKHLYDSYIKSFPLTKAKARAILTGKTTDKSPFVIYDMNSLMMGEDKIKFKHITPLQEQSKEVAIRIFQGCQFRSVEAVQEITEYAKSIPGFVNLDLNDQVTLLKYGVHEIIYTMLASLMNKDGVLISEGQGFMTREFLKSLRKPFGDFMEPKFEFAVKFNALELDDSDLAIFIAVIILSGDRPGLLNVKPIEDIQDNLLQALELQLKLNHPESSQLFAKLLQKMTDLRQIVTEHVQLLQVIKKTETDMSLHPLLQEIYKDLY
Chain of UniProt P35869 (P35869 whole entry, looked up): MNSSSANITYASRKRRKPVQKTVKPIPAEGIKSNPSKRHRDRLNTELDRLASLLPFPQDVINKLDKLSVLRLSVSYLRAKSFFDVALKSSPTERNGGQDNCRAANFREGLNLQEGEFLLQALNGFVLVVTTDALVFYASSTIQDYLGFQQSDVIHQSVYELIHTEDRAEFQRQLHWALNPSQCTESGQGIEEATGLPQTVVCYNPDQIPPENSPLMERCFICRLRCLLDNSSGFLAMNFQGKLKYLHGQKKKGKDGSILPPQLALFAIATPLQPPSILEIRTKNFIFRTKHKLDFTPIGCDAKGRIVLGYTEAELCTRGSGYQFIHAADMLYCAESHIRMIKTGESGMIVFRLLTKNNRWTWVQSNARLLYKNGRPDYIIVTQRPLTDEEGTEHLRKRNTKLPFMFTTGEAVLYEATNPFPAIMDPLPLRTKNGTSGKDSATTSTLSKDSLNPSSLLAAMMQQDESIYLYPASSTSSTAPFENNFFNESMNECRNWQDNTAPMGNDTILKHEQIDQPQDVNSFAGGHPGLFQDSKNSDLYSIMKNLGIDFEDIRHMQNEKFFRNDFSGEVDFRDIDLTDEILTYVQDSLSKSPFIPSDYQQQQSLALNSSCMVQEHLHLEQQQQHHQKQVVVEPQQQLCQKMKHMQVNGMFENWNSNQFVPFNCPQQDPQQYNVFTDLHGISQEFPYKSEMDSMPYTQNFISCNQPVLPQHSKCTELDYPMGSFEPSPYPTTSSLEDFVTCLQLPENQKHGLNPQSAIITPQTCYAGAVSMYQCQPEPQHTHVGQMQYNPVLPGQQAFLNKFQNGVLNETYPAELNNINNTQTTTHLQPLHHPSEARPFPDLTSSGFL

Compound: C=CCCCCCCCCC(=O)O
- Potency [1]: inactive
- activation [2]: inconclusive: 3.14%
- ratio activity, negative = inhibition [3, 7]: inconclusive: -31.4% and inconclusive: -24.8%

Compound: C/C=C/C=C/CCCCCCCO
- Potency [1]: inconclusive: 77 µM [cytotoxic, partial curve, poor fit]
- Potency [3, 7]: inconclusive: 43.6 µM

Compound: CC(C)(O)CCC(C)(C)O
- Potency [1]: inactive
- ratio activity, negative = inhibition [3, 7]: inconclusive: 3.79% [at 81.1 µM]

Compound: CC[C@H](NC(C)C)[C@H](O)c1ccc(O)c2[nH]c(=O)ccc12
- Potency [1]: inconclusive: 11.9 µM [rising, full curve, poor fit]
- activation [2]: inconclusive: 5.01%

Compound: C/C=C1\[C@H]2C=C(C)C[C@]1(N)c1ccc(=O)[nH]c1C2
- Potency [1]: inactive
- Potency [3, 7]: inactive

Compound: CC(=O)CCc1ccc(OC(C)=O)cc1
- Potency [1]: inactive
- Potency [2]: inactive

Compound: Cc1cc(C)cc(O)c1
- Potency [1]: inconclusive: 77.1 µM [cytotoxic, partial curve, poor fit] and inactive
- ratio activity, negative = inhibition ([3]; at 62.6 µM (top of the series)): inconclusive: 18.8%
- ratio activity, negative = inhibition ([3]; at 81.1 µM (top of the series)): inconclusive: 22.3%

Compound: O=CNc1ccccc1
- Potency [1]: inconclusive: 3.48 µM [rising, full curve, poor fit]
- ratio activity, negative = inhibition [3, 7]: inconclusive: 14.5% [at 81.1 µM]

Compound: CCOc1ccc(NC(=O)CC(C)=O)cc1
- Potency [4]: inconclusive: 68.6 µM [activator]

Compound: CCCc1nn(C)c2c(=O)[nH]c(-c3cc(S(=O)(=O)N4CCN(C)CC4)ccc3OCC)nc12
- Potency [1]: inactive
- Potency [3, 7]: inactive
- Potency [5]: inconclusive: 13.3 µM [rising, single point]

Compound: CCCC1CCC(=O)O1 (configuration not stated)
- Potency [1]: inconclusive: 77 µM [rising, single point]
- Potency [2]: inactive
- Potency [3, 7]: inactive

Compound: COCCOCCOCCOCCOC
- Potency [4]: inactive

Compound: OCCC1CCCCN1 (configuration not stated)
- Potency [1]: inactive
- Potency [2]: inactive
- Potency [3, 7]: inconclusive: 62 µM [cytotoxic, partial curve, poor fit]

Compound: CN(C)CCCN1c2ccccc2Sc2ccccc21
- Potency [1]: inconclusive: 14.3 µM [cytotoxic, single point]
- Potency [3, 7]: inconclusive: 13.3 µM [inhibitor, partial curve]
- Potency [5]: inconclusive: 33.5 µM [cytotoxic, single point]

Compound: O=C(O)c1ccc(C(=O)O)c(C(=O)O)c1
- Potency [1]: inconclusive: 38.6 µM [rising, partial curve, poor fit]
- ratio activity, negative = inhibition [3, 7]: inconclusive: 1.1% [at 81.1 µM]

Compound: CC(=O)N[C@@H](CCC(=O)O)C(=O)O
- Potency [1]: inactive
- Potency [5]: inactive

Compound: Cn1c(=O)c2[nH]cnc2n(C)c1=O
- Potency [1]: inactive
- Potency [2]: inactive
- ratio activity, negative = inhibition [3, 7]: inconclusive: -17.6% [at 81.1 µM]

Compound: C/C=C/c1ccc(OC)cc1
- Potency [1]: inactive
- activation [2]: inconclusive: 1.78% [at 78.9 µM]
- ratio activity, negative = inhibition [3, 7]: inconclusive: -7.2% [at 81.1 µM]

Compound: CCCCCOC(C)=O
- Potency [1]: inactive
- Potency [3, 7]: inactive

Compound: ICCc1ccccc1
- Potency [1]: inactive
- Potency [3, 7]: inactive

Compound: CS(C)=O
- Potency [1]: inactive
- ratio activity, negative = inhibition [3, 7]: inconclusive: -8.25%

Compound: CNCCCC1c2ccccc2C=Cc2ccccc21
- Potency [1]: inactive
- activation [2]: inconclusive: -10.5% [at 26.2 µM]
- Potency [3, 7]: inconclusive: 21.1 µM [inhibitor, partial curve]

Compound: CCC(=O)c1ccc(O)cc1
- Potency [1]: inactive
- Potency [5]: inactive

Compound: CC(C(=O)O)c1cccc(Oc2ccccc2)c1 (configuration not stated)
- Potency [1]: inconclusive: 12.7 µM [rising, partial curve, poor fit]
- Potency [2]: inconclusive: 10.2 µM [activator, partial curve]
- Potency [3, 7]: inconclusive: 33.5 µM [inhibitor, partial curve, poor fit]

Compound: OC(CN1CCC(Cc2ccc(F)cc2)CC1)c1ccc(Cl)cc1 (configuration not stated)
- Potency [1]: inactive
- Potency [6]: inactive

Compound: C=CCOC(=O)CCCCCC
- Potency [1]: inactive
- ratio activity, negative = inhibition [3, 7]: inconclusive: 28.9%

Compound: CC1=NN(c2cc(Cl)c(S(=O)(=O)O)cc2Cl)C(=O)C1N=Nc1ccc(S(=O)(=O)O)cc1 (configuration not stated)
- activity change, negative = cytotoxicity [1]: inconclusive: -39.5% [cytotoxic]
- Potency [6]: inconclusive: 48.6 µM [falling, partial curve]
- Potency [3, 7]: inactive

Compound: O=C(O)Cc1c(Cl)ccc(Cl)c1Cl
- Potency [1]: inactive
- Potency [6]: inconclusive: 30.6 µM [rising, partial curve, poor fit]
- Potency [2]: inconclusive: 61.6 µM [activator, single point]
- Potency [3, 7]: inactive
